# Experimental data: paper PMC12136788
# Some of the results follow.
# T1: UNK ZnF1-3 (human, UniProt Q9C0B0 31-174)
# T1 sequence: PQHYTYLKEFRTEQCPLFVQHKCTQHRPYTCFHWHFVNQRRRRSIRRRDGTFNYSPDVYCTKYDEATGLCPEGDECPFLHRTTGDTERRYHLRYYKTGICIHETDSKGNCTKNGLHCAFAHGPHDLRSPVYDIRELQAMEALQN
# B1: chr7:54823571:54823572:-_ENSG00000132432_ENST00000352861|hu_mus|FALSE|FALSE (ssRNA)
# RNA: GGGAGUUCUACAGUCCGACGAUCUCCCAUGAUAGCAAAUCCUAUAGCUGUAGCCAUGGCAAUCUUCUGGAAUUCUUUUCUGUCGGGUUUGGUGCAUCUUUUAACCAGCCGAAUUGAGUCCUUUACAAACUGCCGGCUGGGCUCCAACAGAGGAUUGAGCAUCA
# B2: chr2:131005039:131005040:-_ENSMUSG00000068267_ENSMUST00000089510|mus_mus|motif|central (ssRNA)
# RNA: GGGAGUUCUACAGUCCGACGAUCGUACCACAGGCUGGUCUCGGUGGCGCUGAACACGUCCUGCGAGGCGUAGCCCUCAGCGGCCGACGGCGGCUGCUCCUCCCUCGUGUGCCAGCCGGGUGUGCUCCCACCGCUGCCCUCGGACAACAGAGGAUUGAGCAUCA
# B3: chr16:94690422:94690423:+_ENSMUSG00000040785_ENSMUST00000117648|mus_mus|motif|central (ssRNA)
# RNA: GGGAGUUCUACAGUCCGACGAUCAUGUAUUCAAGGUUCACAUGUCUGUAUUUGCCACUGCCUACAGGUCACUAAAAAUACCGGGUUUUUGAAUAGUUUCUAAUACAGUUAGCUUGUUUUCAGGCCACAUUACAAGAUUGCAUGCAACAGAGGAUUGAGCAUCA
# B4: chr14:78183846:78183847:+_ENSG00000119705_ENST00000557342|hu_hu|hu_hu_hu_mus_False|78_98 (ssRNA)
# RNA: GGGAGUUCUACAGUCCGACGAUCUCUCAGAAAUCUUUCUUUCUUUUAUGUUUGAGCUGUUUGCGGAGCCUUUGCUCUUUGAGCUUGAACGUGGAUCUAUGGGAGGGAAAGCACUGUCAGAAAAGGUAAUUUUUUUUUUAAAGACAACAGAGGAUUGAGCAUCA
# B5: chr6:41757443:41757444:+_ENSG00000214736_ENST00000398881|hu_mus|hu_hu_hu_mus_False|68_98 (ssRNA)
# RNA: GGGAGUUCUACAGUCCGACGAUCGAACCGUGCAGAGACCAGAGAAUAGCCGACACUGGGGGAUGGGGGAACAAAAGGGGGGGGUUCAGGCAAGGAGAGGGAGUCAACUUCAGCUGCCACUCAGGUAGGAUCUUGUGGUCACAGCAACAGAGGAUUGAGCAUCA
# B6: chr16:13687521:13687522:+_ENSMUSG00000022684_ENSMUST00000023365|mus_hu|motif|central (ssRNA)
# RNA: GGGAGUUCUACAGUCCGACGAUCGGCUGCAAGACUUUGGACUAUGUCAUUAUUCUGCUGAAUGUCUUCAAAUCUCAGUCGGAUGGCAUCAGGAAAUAACUUUUCAAUGGCAUCCCUGAGGAGAAUACUGACUUUGGGGAAACCCAACAGAGGAUUGAGCAUCA
# B7: chr3:112251601:112251602:-_ENSG00000144848_ENST00000283290|hu_mus|FALSE|FALSE (ssRNA)
# RNA: GGGAGUUCUACAGUCCGACGAUCAGGAUAGACUCUAUAGCCUCUCCACUACAUUGUGAAGUGUCUUGUGUAGUCAUAUUCUAUUGUUGGAAUGACAGCUUGAACAAAUUUCAAAAAAAUUAAAAGAUACAUAUGAACACCAAGCAACAGAGGAUUGAGCAUCA
# B8: chr9:95013113:95013114:-_ENSG00000196305_ENST00000443024|hu_hu|hu_hu_hu_mus_False|1_58 (ssRNA)
# RNA: GGGAGUUCUACAGUCCGACGAUCCUCAGUCAGAAAGGGCGUGUAAGGGGCCAUCAGUCUGCACAGAGAAAGCAGGACACUAAACAAUGUCUCCAGAGCCAUGACACAGUCUUCCACCCCACUCUCACCCUUUAACCUUCUGCGCAACAGAGGAUUGAGCAUCA
# B9: chr5:134235298:134235299:+_ENSG00000113621_ENST00000507024|hu_hu|motif|central (ssRNA)
# RNA: GGGAGUUCUACAGUCCGACGAUCUGUCCUGGAAUUAGCCACCGAAUACUCUCAGUUCGAAUGGUAGCAUACAUAAUAAAACGGAUUAAAAAGAAUAAGGAAAAUACAAGCAACCAGUCCACACUUUUUAUCAAAGUGCUGGGACAACAGAGGAUUGAGCAUCA
# B10: chr2:225400320:225400321:-_ENSG00000036257_ENST00000409096|hu_hu|motif|central (ssRNA)
# RNA: GGGAGUUCUACAGUCCGACGAUCGUUCUCCACAUUAUUUUGUUGUACAUACACACGGUCCAUGUACAUUAGUAUGUCUCGGAUCAUCACCAUAGCUGUUUGAUGAUCAUUCCAAGCUUGAUUUAGCGUUUGAAGAAAGUUGUUCAACAGAGGAUUGAGCAUCA
# B11: chr7:141441981:141441982:+_ENSG00000106028_ENST00000265304|hu_mus|hu_hu_hu_mus_False|8_48 (ssRNA)
# RNA: GGGAGUUCUACAGUCCGACGAUCCUCAUGUCUUACAAACUGACGAAAUACCUGUAACACAGGUCUUCGAAACAUGGCUUCUGUUUUCUUUUCUUACUAAUCUUUAGGCUUUUCCUAAAGGAAAGAAUAACCCGAGCAAAAUGACAACAGAGGAUUGAGCAUCA
# B12: chr13:74460584:74460585:-_ENSMUSG00000021577_ENSMUST00000022062|mus_hu|FALSE|FALSE (ssRNA)
# RNA: GGGAGUUCUACAGUCCGACGAUCGUCUCAUCAGUAGGAGCGAAUGGCUGGCGGGACGGUGGCACAGUCAGCCUCGUUCAAAGUUUUGUCGAUCACGGGUCUAUAUUCCAGAGUGACCUUCCCAGUGCCAACGUCCACAUAGGACAACAGAGGAUUGAGCAUCA
# B13: chr8:146017231:146017232:-_ENSG00000161016_ENST00000531975|hu_mus|FALSE|FALSE (ssRNA)
# RNA: GGGAGUUCUACAGUCCGACGAUCGAACUGUCCAGUGUGGAUCCCCUCCGCUGCGAUGAACAGCUCUGUCCGCUUCUUGAAUCGGUAGGGAUCCCGAAAGACGACUUUGGCGAGGGGAGCGCCGCGGCCAGGGUCAUGAAUGAUCAACAGAGGAUUGAGCAUCA
# B14: chr1:68170538:68170539:-_ENSG00000172380_ENST00000370982|hu_hu|FALSE|FALSE (ssRNA)
# RNA: GGGAGUUCUACAGUCCGACGAUCUUAGGAUACUCUUUACUUUUUGUACAAUAACGAUAUGAAAGGAAUUUUUUAUUCUACCUAUACACAGCUCAAAAUAAAGGUAUAACUUCUGGAACUGAGAAACUGAUGGUAUGGAGAGAGCAACAGAGGAUUGAGCAUCA
# Target: T1, UNK ZnF1-3
# Assay: nsRBNS (natural sequence RNA bind-n-seq); RBNS binding buffer (assumed for nsRBNS): 25 mM Tris pH 7.5, 150 mM KCl, 3 mM MgCl2, 0.01% Triton X-100, 500 ug/ml BSA, 20 U/ml SUPERase-In, 4 C; UNK is unkempt and MSI1 is Musashi-1; names of the RNAs are library labels; protein concentration not given here; high values mean tight binding
row,Binder,binding signal [enrichment R]
1,B1,0.719
2,B2,0.766
3,B3,1.11
4,B4,1.21
5,B5,2.29
6,B6,1.17
7,B7,2.49
8,B8,1.21
9,B9,2.71
10,B10,0.526
11,B11,0.71
12,B12,0.748
13,B13,0.439
14,B14,0.984
